# Assay results taken from PubChem BioAssay AID1240 (Sanford-Burnham Center for Chemical Genomics, 2008).
# Screen size: about 50,000 compounds; about 800 (1.6%) showed an effect of 50% or more. The list shows a part of the results.
# Biological target: Bcl-2-like protein 10 (Homo sapiens) (UniProt Q9HD36)
# Test: TR3 peptide-Bcl-B binding displacers, biochemical primary FP assay, phenotype converters (AID 1240);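 note: 0% = Bcl-B with tracer peptide and DMSO and 100% = tracer peptide lacking Bcl-B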
# Details: GST-Bcl-B / FITC-TR3 peptide fluorescence polarization; stronger effect = higher value; compound at 3.75 mg/L
# Chain of UniProt Q9HD36 (Q9HD36 whole entry, looked up): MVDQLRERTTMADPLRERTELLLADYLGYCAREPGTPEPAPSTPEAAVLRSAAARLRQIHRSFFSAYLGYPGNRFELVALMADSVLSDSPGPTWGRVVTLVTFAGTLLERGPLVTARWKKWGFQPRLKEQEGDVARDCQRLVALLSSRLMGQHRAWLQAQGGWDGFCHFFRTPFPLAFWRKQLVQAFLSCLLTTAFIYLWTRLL
row,Structure (SMILES),displacement
1,O=C(NCCNc1ccc([N+](=O)[O-])cc1)c1ccccc1F,10%
2,O=C(/C=C/c1ccc(OC2CSC2)cc1)c1ccccc1,5.2%
3,CCOC(=O)c1c(N)sc2c1CC(C)(C)NC2(C)C,11.2%
4,COc1cccc(-c2cc(C(=O)NC(C)c3ccccc3)c3ccccc3n2)c1 (stereo not given),33.6%
5,CC(=O)Nc1nc(-c2ccc(C)c(C)c2)cs1,8.1%
6,COc1ccc2c(=O)c(Oc3ccccc3Br)c(C(F)(F)F)oc2c1,14.1%
7,O=C(c1sc2ccccc2c1Cl)N1CCC(Cc2ccccc2)CC1,6.5%
8,COC(=O)c1sccc1NC(=O)c1cccc(Cl)c1,-8.6%
9,Cc1ccc(N2C(=O)CSC2c2ccc(F)cc2)cc1 (stereo not given),-5.1%
10,N#C/C(=C/c1cccnc1)C(=O)Nc1cccc(Br)c1,-15.9%
11,CS(=O)(=O)N(CC(N)=O)c1cccc(Cl)c1,-9.8%
12,COCCNC(=O)C(=O)NCc1ccc(C)cc1,5.4%
13,CC(Nc1cccc2ccccc12)C(=O)N/N=C/c1ccc(O)cc1O (stereo not given),-1.3%
14,O=C(Cc1ccccc1)N1N=C(c2ccccc2)CC1(O)C(F)(F)F (stereo not given),10.1%
15,CCc1ccc(NC(=O)/C=C/c2ccc(OC)cc2)cc1,-2.2%
16,O=C(CC(CC(=O)c1nc2ccccc2s1)c1ccccn1)c1nc2ccccc2s1,23.1%
17,O=C(CNC1CCCCC1)Nc1c2c(nc3ccccc13)CCC2,-8.4%
18,O=C(NCCNc1ccc([N+](=O)[O-])cc1)c1cccc(Br)c1,16.4%
19,O=C1c2ccccc2NC(c2ccc(F)cc2)N1c1ccccc1 (stereo not given),-14.5%
20,COC(=O)c1ccc(-n2c(C)cc(/C=C3\C(=O)NC(=O)N(c4ccc(OC)cc4)C3=O)c2C)cc1,115%
21,COc1cccc(/C=C2\SC(=S)N(NC(=O)c3ccncc3)C2=O)c1,-7.6%
22,CCN(CC)S(=O)(=O)c1ccc(NC(=O)c2ccc(Cl)cc2)cc1,-6.3%
23,COc1cc(NC(C)=O)c(OC)cc1Cl,-13.3%
24,CCCC(=O)NC(c1ccc([N+](=O)[O-])cc1)c1c(O)ccc2ccccc12 (stereo not given),-7.6%

row,Structure (SMILES),displacement
1,CN(C)c1ccc(NC(=O)C(N)=O)cc1,5.1%
2,O=[N+]([O-])c1ccc(-c2ccc(/C=C/c3ccncc3)o2)cc1,7.5%
3,COc1cc(OC)c(/C=C2\C(=O)NC(=O)N(c3ccc(Cl)cc3)C2=O)cc1Br,6.4%
4,Cc1ccc(S(=O)(=O)N2CCOCC2)cc1S(=O)(=O)N1CCOCC1,-5.8%
5,CC(C)(C)c1ccc(C(=O)NCCOCc2ccccc2)cc1,-8.4%
6,Cc1[nH]nc2c1C(C1CC=CCC1)C(C#N)=C(N)O2 (stereo not given),-4.6%
7,Cc1nnc(C)n1/N=C/c1ccc(O)c(O)c1,15.9%
8,CC(Oc1ccc(Cl)cc1Cl)C(=O)NC12CC3CC(CC(C3)C1)C2 (stereo not given),-11.1%
9,O=C(NC(=S)Nc1cccc2ccccc12)c1ccco1,11.2%
10,CN(C)c1ccc(-c2nc3ccccn3c2/N=C/c2cccc([N+](=O)[O-])c2O)cc1,10.6%
11,COc1ccc(CCNC(=O)c2ccc(C(C)(C)C)cc2)cc1OC,-3.5%
12,CC1=C(C(=O)Nc2ccccc2C)C(c2ccccc2)NC(=O)N1C (stereo not given),10.2%
13,COc1c(Cl)cc(C(=O)Nc2ccc(Cc3ccncc3)cc2)cc1Cl,-12.1%
14,Cc1cc2nc(-c3cc(NC(=O)Cc4ccccc4)ccc3Cl)oc2cc1C,9.5%
15,O=C(CCCN1C(=O)c2cccc3cccc(c23)C1=O)N1CCc2ccccc2C1,8%
16,O=C(CC(c1ccccc1)S(=O)(=O)c1ccccc1)c1ccccc1 (stereo not given),5.1%
17,COc1ccc([N+](=O)[O-])cc1N(CC(O)CN1CCOCC1)S(=O)(=O)c1ccc(C)cc1 (stereo not given),-1%
18,CN(C)c1ccc(C2/C(=C(/O)c3ccccc3)C(=O)C(=O)N2Cc2ccccc2)cc1 (stereo not given),2%
19,O=C(NCCNc1ccc(Cl)cc1[N+](=O)[O-])c1ccc2c(c1)OCCO2,-0.2%
20,O=S(=O)(Nc1nccs1)c1ccc2ccccc2c1,-4%
21,O=C(NN=C1CCCCC1)c1ccc(O)cc1,8.3%
22,CC(C)CC(C(=O)O)N1C(=O)C2C3C=CC(C2C1=O)C1C(=O)N(C(CC(C)C)C(=O)O)C(=O)C31 (stereo not given),-2.8%
23,CCc1cc(=O)oc2cc(C)cc(O)c12,9.2%
24,COC(=O)c1c(C)oc2ccc(OCc3ccc(C)cc3)cc12,5.9%

row,Structure (SMILES),displacement
1,CCOc1cccc(-c2cc(C(=O)N3CCN(Cc4ccccc4)CC3)c3ccccc3n2)c1,-3.4%
2,COc1ccc(C2Nc3ccccc3NC3=C2C(=O)CC(c2ccc(Cl)cc2)C3)cc1OC (stereo not given),9.5%
3,COc1cccc(OC)c1C(=O)Nc1cccc(Oc2ccc3c(c2)C(=O)N(c2ccccc2)C3=O)c1,4.6%
4,O=C1c2ccccc2C(=O)N1CNc1ccc(Cc2ccc(NCN3C(=O)c4ccccc4C3=O)cc2)cc1,6.1%
5,COc1ccc(C2CC(=O)C3=C(C2)Nc2ccccc2NC3c2cccc(Cl)c2Cl)cc1OC (stereo not given),6.4%
6,O=C(NC1CCCCC1)c1cccc(Cl)c1,11.4%
7,O=C1CC(c2cccc(C(F)(F)F)c2)c2ccc3ccccc3c2N1 (stereo not given),-21.7%
8,CN1C(c2ccccc2)CC(=NO)CC1c1ccccc1 (stereo not given),-4.2%
9,COc1cc(/C=N/Nc2nc(N3CCOCC3)nc(N3CCOCC3)n2)cc(OC)c1,4.8%
10,Cc1c(Cl)cccc1NC(=O)c1ccccc1C(=O)O,-2.9%
11,COc1ccc(NC(=O)c2cnn3c2NC(c2cccs2)CC3C(F)(F)F)cc1OC (stereo not given),2.1%
12,CC1(C)CC(OC(=O)/C=C\C(=O)OC2CC(C)(C)NC(C)(C)C2)CC(C)(C)N1,-1.2%
13,CC(=O)N1CCN(c2ccc(C(=O)c3ccccc3)cc2F)CC1,0.4%
14,O=C(c1cnn2c1NC(c1ccc(Br)cc1)CC2C(F)(F)F)N1CCOCC1 (stereo not given),5.9%
15,Cc1ccc(-c2csc(NC(=O)c3ccc([N+](=O)[O-])c(C)c3)n2)cc1,-4.3%
16,CCCCOc1ccc2c(C)c(Cl)c(=O)oc2c1,4.6%
17,O=C(CSc1nc2ccccc2[nH]1)Nc1ccc(F)c(Cl)c1,-7.1%
18,CCOC(=O)C1=C(O)CSC1=Nc1cccc(Cl)c1,-7.8%
19,COC(=O)c1c(NC(=O)c2cccc([N+](=O)[O-])c2)sc2c1CCC2,7%
20,CCc1nc2ccc(Oc3ccc4nc(CC)[nH]c4c3)cc2[nH]1,12.5%
21,CC(C)C(=O)Nc1cc(C(F)(F)F)cc(C(F)(F)F)c1,-2.9%
22,O=C(Nc1ccc([N+](=O)[O-])cc1)c1ccc2c(c1)C1C=CCC1C(c1ccc(Cl)cc1)N2 (stereo not given),-7.2%
